Assay results published in the RNAGym collection of RNA variant scans (doi:10.1101/gad.245936.114).
This sample is rich in variants without activity.

B1: tRNA (parent)
chain: CUCUCGGUAGCCAAGUUGGUUUAAGGCGCAAGACUUUAAUUUAUCACUACGAAAUCUUGAGAUCGGGCGUUCGACUCGCCCCCGGGAGAUUUUUUCCUCGAGCAA

Variants of: B1
Assay: nonsense suppression (GFP-seq) (ratio to wild type); higher = more function; SUP4oc tRNA, yeast GFP reporter sort-seq
How it was run: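 To measure nonsense suppression, tRNA variants from a library carrying ~3% random mutations were integrated into the yeast genome alongside RFP and a GFP ochre reporter under galactose control. Growth took place in raffinose/galactose medium supplemented with 80 mg/L adenine, followed by sorting into GFP/RFP bins and Illumina sequencing of each bin (phred ≥30). For each variant with ≥100 reads and ≥30 cells, the bin median GFP/RFP values were weighted by its estimated cell share per bin and referenced to the unmutated parent tRNA.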

Variant | nonsense suppression
A14C U21G C68U | ≤ 0.026
G15C G25U | ≤ 0.026
G15C A23U | ≤ 0.026
G15A C75A | 0.854
G15A U63A A89U | ≤ 0.026
G15A C34U G65C U70A C72G | ≤ 0.026
A14U G88A | ≤ 0.026
A14U U16C | ≤ 0.026
G15C A33U G61A | ≤ 0.026
A14C G26U A33C U58G | ≤ 0.026
G15C G28U A62C G86C | ≤ 0.026
A14U G19C A23U C34U | ≤ 0.026
G15A A31G | 0.0274
A14U A60U G66C C80U | ≤ 0.026
G15A U58G A62C U70A | ≤ 0.026
A14G A24U C83A | ≤ 0.026
A14C U35A A74G C75U | ≤ 0.026
A14U C27G C72G G85C | ≤ 0.026
A14G C64U G65C G69U U71G | ≤ 0.026
G15C C34A C82G | 0.816
A14G A31C C68A | ≤ 0.026

Variant | nonsense suppression
A14G U17C G61A A74C | ≤ 0.026
A14G C64G G65C C83U | ≤ 0.026
G15C G69C G85U | ≤ 0.026
A14G C29A G73A | ≤ 0.026
G15A C64G G67U G84U A87U | ≤ 0.026
A14U G19U C27U U35A | ≤ 0.026
A14G G65A U71C C72G G88A | ≤ 0.026
A14C G61U | ≤ 0.026
A14G U16C G25C A54U A60G G65C | ≤ 0.026
A14G C56G | ≤ 0.026
A14G C56A | ≤ 0.026
G15A A31U U35C U76G C83U | ≤ 0.026
G15A U21A C82G | ≤ 0.026
A14C U16C G19A A23U C29U A30G C72G C82A | ≤ 0.026
G15A A30G | ≤ 0.026
A14C G78A C80A C81A | ≤ 0.026
A14G U21A C34G | ≤ 0.026
A14C G25U U63C | ≤ 0.026
A14U A54C | ≤ 0.026
G15C G59C G61C | ≤ 0.026
A14U A33G C83U | ≤ 0.026

Variant | nonsense suppression
A14G G26C | ≤ 0.026
A14U G26U | ≤ 0.026
G15C G26U U57C G78C | ≤ 0.026
A14G A74C | ≤ 0.026
G15A U17A U35G C56U U63C G85C | ≤ 0.026
A14G C34G | ≤ 0.026
A14G G28A U71A | ≤ 0.026
A14U G18A | ≤ 0.026
A14U U22C G88A | ≤ 0.026
A14C U17G A54C C56A C82A | ≤ 0.026
A14G A24G U70A | ≤ 0.026
A14G A89U | ≤ 0.026
A14U G28C G65A U76G | ≤ 0.026
A14G G26U U57C G78U | ≤ 0.026
A14U A24U C34U G88C | ≤ 0.026
A14G U21G C29U A30U C34A | ≤ 0.026
A14C U58G G59U C82U | ≤ 0.026
A14U U21C A24C G26U A54U | ≤ 0.026
A14U G73A | ≤ 0.026
G15C C64U | ≤ 0.026
A14U U63A | 0.0439

Variant | nonsense suppression
A14G U70G | ≤ 0.026
G15C A24G A89U | ≤ 0.026
A14U U71G | ≤ 0.026
A14U U71A | ≤ 0.026
A14U U16A A62U G84U | ≤ 0.026
G15A C83A | ≤ 0.026
A14G C34U U35A | ≤ 0.026
G15A C77U G85A G88U | ≤ 0.026
G15A A31U A33G | ≤ 0.026
A14U C56U C80U G88C | ≤ 0.026
A14U U71G C72G | ≤ 0.026
A14G G59A | ≤ 0.026
A14G G59C | ≤ 0.026
A14G U35C | ≤ 0.026
G15C A24G C77G | ≤ 0.026
G15C A24G C77U | ≤ 0.026
A14G A54G G86A | ≤ 0.026
A14U U55C G78A | ≤ 0.026
A14G A23G | ≤ 0.026
G15A A23G C64U U71A | ≤ 0.026
A14U U17C G61U C80G | ≤ 0.026
